# According to the supplement of paper PMC10338343:
# ± gives the standard deviation. The entries are a selection whose mix differs from that of the whole data set.
# Tested on: MIWI (PIWIL1) piRISC loaded with L1MC piRNA (30 nt)
# Test: pre-steady-state target cleavage rate (min^-1); MIWI and MILI are mouse PIWI proteins and EfPiwi is from a freshwater sponge; tags in brackets are library labels; higher = faster piRNA-guided slicing of the target
# Settings: guide: L1MC piRNA 5'p-UAACUAAAUACUAUGCAAGCUGUAGGUCCU; auxiliary factor: 500 nM mouse GTSF1
# How it was run: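 A transcribed, DNA-blocked target RNA library (0.1 nM) and 1 nM active affinity-purified piRISC bearing one synthetic guide were incubated in HEPES–potassium acetate buffer at 33 °C for 0–8 or 0–960 min, either with or without 500 nM GTSF1 partner protein. Uncleaved targets were sequenced, normalised to depth and to weakly complementary targets, and pooled over three trials, with k3 capped at 0.0001 min^-1. The pre-steady-state cleavage rate was derived with a burst-and-steady-state fit.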
row,Sequence,pre-steady-state target cleavage rate
1,UCCACCUACAGCUUGCUUAGUAUUUAGAAA,0.226 ± 0.037
2,UCCUGCUACAGCUUGCAUAGUUUUUAGAAA,0.124 ± 0.025
3,UGGACCUACAGCUUGCAUAGUAUUAUGAAA,0.225 ± 0.041
4,UGCUCCUACAGCUUGCAUAGUAUUUUCAAA,0.263 ± 0.036
5,UCCUGGAUGUCGAUAGCAUAGUAUUUAGUUA,0.0121 ± 0.0058
6,UCCUGGAACAGCUUGCAUACUAUUUACAAA,0.0814 ± 0.019
7,UCCUGGAUGUCGAACCAUAGAAUUUAGUUA,< 0.0001
8,UCGACCUACAGCUUGCAUAGUUAAUAGAAA,0.194 ± 0.054
9,UCCUCCUACAGCUUGCAUAGAAUUUUCAAA,0.194 ± 0.039
10,UCCUGGAUGUGCUAGCAUAGUAUUAAGUUA,0.0186 ± 0.0048
11,UCCUCCUACAGCUUGCCAUAGUAUUUAGUUA,0.208 ± 0.03
12,UCCUGCUACAGCUUGACAUAGUAUUUAGUUA,0.386 ± 0.04
13,AGGACCUACAGCUUGCAUAGUUUUUUCAAA,0.264 ± 0.053
14,UCCUGGAUGUGCUUGGAUAGUAUUUAGAAA,0.00431 ± 0.0033
15,UCCUGGAUCAGCAAGCAUAGUAUUUAGAAA,0.0101 ± 0.0047
16,UCCUCCUACAGCUUGCUAUAGUAUUUAGUUA,0.0332 ± 0.012
17,UCCUGGUACAGGAAGCAUAGUAUUUAGUUA,0.165 ± 0.022
18,UCCUGGAUGUCGAUUCAUAGUAUUUAGUUA,0.0103 ± 0.0043
19,UCCUCCUACAGCUUCCAUAGUUUUUAGUUA,0.0305 ± 0.013
20,AGGACCUACAGCUUGCAUAGUAUAAUGAAA,0.385 ± 0.071
21,UCCUGCUACAGCUUGCAUUCUAUUUAGUAA,0.0405 ± 0.011
22,UGGACCUACAGCUUGCAUAGUAAAAACAAA,0.0611 ± 0.021
23,UCGACCUACUCGUUGCAUAGUAUUUUCAAA,0.162 ± 0.025
24,UCCACCUACAGCUUGGUAAGUAUUUAGUUA,0.0619 ± 0.011
